The list shows a part of the results. Repeats are few or missing, and single values can be far off.
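Also: cells treated in 1,536-well plates, then fixed and DAPI-stained, with nuclei counted from automated high-throughput microscope images.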

For this assay, the system named is SkMel28. As to the kind of experiment: cell count relative to DMSO control; melanoma cells; higher = more viable cells. As to conditions: library dose: standard library concentration; 72 h.
In turn, `O=c1[nH]nc(Sc2ncc([N+](=O)[O-])s2)n1-c1ccc2c(c1)OCCO2` + COc1cc(N2CCC(N3CCN(C)CC3)CC2)ccc1Nc1ncc(Cl)c(Nc2ccccc2S(=O)(=O)C(C)C)n1 [NVP-TAE684] (first compound 1 µM, partner dose 0.4 µM) showed a cell count of 97.9%. To `O=c1[nH]nc(Sc2ncc([N+](=O)[O-])s2)n1-c1ccc2c(c1)OCCO2` + N#Cc1c(O)c2c(-c3ccc(-c4ccccc4O)cc3)csc2[nH]c1=O [A769662] (first compound 1 µM, partner dose 10 µM) belongs 105%; to `O=c1[nH]nc(Sc2ncc([N+](=O)[O-])s2)n1-c1ccc2c(c1)OCCO2` + O=c1cc(-c2cccc3c2Sc2ccccc2S3)oc(N2CCOCC2)c1 [KU55933] (first compound 1 µM, partner dose 5 µM), 92.4%; to `O=C(Nc1cccc(Cl)c1)Nc1ncc(CCNc2ncnc3ccsc23)s1` + CC(C)CCN1c2nc(Nc3cc(F)c(O)c(F)c3)ncc2N(C)C(=O)C1C [BID1870] (first compound 0.004 µM, partner dose 1 µM), 36.2%. As for `Cn1cncc1[C@@](N)(c1ccc(Cl)cc1)c1ccc2c(c1)c(-c1cccc(Cl)c1)cc(=O)n2C` [tipifarnib] + COc1cc(N2CCC(N3CCN(C)CC3)CC2)ccc1Nc1ncc(Cl)c(Nc2ccccc2S(=O)(=O)C(C)C)n1 [NVP-TAE684] (first compound 0.05 µM, partner dose 0.4 µM), the figure is 52.4%; as for `C[C@@H]1CCN(C(=O)CC#N)C[C@@H]1N(C)c1ncnc2[nH]ccc12` + CCCCCCCCCCCC1=C(O)C(=O)C=C(O)C1=O [Embelin] (first compound 5 µM, partner dose 6 µM), 69.4%; as for `C[C@@H]1CCN(C(=O)CC#N)C[C@@H]1N(C)c1ncnc2[nH]ccc12` + Cc1cc([N+](=O)[O-])ccc1NS(=O)(=O)c1cc(Cl)ccc1Cl [FH535] (first compound 5 µM, partner dose 5 µM), 83.9%. As for `O=c1[nH]nc(Sc2ncc([N+](=O)[O-])s2)n1-c1ccc2c(c1)OCCO2` + COc1ccc(COc2ccc(Cc3cnc(N)nc3N)cc2OC)cc1 [GW2580] (first compound 1 µM, partner dose 5 µM), the figure is 141%; as for `O=C(O)c1ccc(-c2c[nH]c3ncc(-c4ccccc4)cc23)cc1C1CCCC1` + Oc1cc(-c2nc(-c3ccccc3)[nH]c2-c2ccncc2)ccc1Cl [L779450] (first compound 0.8 µM, partner dose 1 µM), 41.7%; as for `CC1(C)NC(=O)N(c2ccc([N+](=O)[O-])c(C(F)(F)F)c2)C1=O` [nilutamide] + COc1ccc(-c2ccc3c(N4CCOCC4)nc(N4C[C@@H](C)O[C@@H](C)C4)nc3n2)cc1CO [KU0063794] (first compound 5 µM, partner dose 0.1 µM), 106%. With `O=c1[nH]nc(Sc2ncc([N+](=O)[O-])s2)n1-c1ccc2c(c1)OCCO2` + C[C@@H](Oc1cc(-c2cnn(C3CCNCC3)c2)cnc1N)c1c(Cl)ccc(F)c1Cl [Crizotinib] (first compound 1 µM, partner dose 1 µM), the cell count was 73.9%. As for `O=C(Nc1cccc(Cl)c1)Nc1ncc(CCNc2ncnc3ccsc23)s1` + Cc1cc([N+](=O)[O-])ccc1NS(=O)(=O)c1cc(Cl)ccc1Cl [FH535] (first compound 0.004 µM, partner dose 5 µM), the figure is 44.1%; as for `O=c1[nH]nc(Sc2ncc([N+](=O)[O-])s2)n1-c1ccc2c(c1)OCCO2` + O=S(=O)(c1ccccc1)N(CC(F)(F)F)c1ccc(C(O)(C(F)(F)F)C(F)(F)F)cc1 [T0901317] (first compound 1 µM, partner dose 7 µM), 74.2%.

In the case of `COc1cc(Nc2ncc(F)c(Nc3ccc4c(n3)NC(=O)C(C)(C)O4)n2)cc(OC)c1OC` [Tamatinib] + O=c1cc(-c2cccc3c2Sc2ccccc2S3)oc(N2CCOCC2)c1 [KU55933] (first compound 2 µM, partner dose 5 µM), the cell count is 70.7%. As for `O=C(O)c1ccc(-c2c[nH]c3ncc(-c4ccccc4)cc23)cc1C1CCCC1` + O=C1NC(=O)/C(=C/c2ccc(-c3ccc(F)cc3O)o2)S1 [AS252424] (first compound 0.8 µM, partner dose 5 µM), the figure is 55.4%; as for `O=c1[nH]nc(Sc2ncc([N+](=O)[O-])s2)n1-c1ccc2c(c1)OCCO2` + CCCCCCCCCCCC1=C(O)C(=O)C=C(O)C1=O [Embelin] (first compound 1 µM, partner dose 6 µM), 84.4%.

In the case of `O=c1[nH]nc(Sc2ncc([N+](=O)[O-])s2)n1-c1ccc2c(c1)OCCO2` + Oc1cc(-c2nc(-c3ccccc3)[nH]c2-c2ccncc2)ccc1Cl [L779450] (first compound 1 µM, partner dose 1 µM), the cell count came to 39%. As for `O=c1[nH]nc(Sc2ncc([N+](=O)[O-])s2)n1-c1ccc2c(c1)OCCO2` + Oc1nc(-c2ccc(C(F)(F)F)cc2)nc2c1CSCC2 [XAV939] (first compound 1 µM, partner dose 10 µM), the figure is 93.7%; as for `O=c1[nH]nc(Sc2ncc([N+](=O)[O-])s2)n1-c1ccc2c(c1)OCCO2` + COC(=O)c1sccc1S(=O)(=O)Nc1ccc(Nc2ccccc2)cc1OC [GSK0660] (first compound 1 µM, partner dose 5 µM), 101%. To `O=C(Nc1cccc(Cl)c1)Nc1ncc(CCNc2ncnc3ccsc23)s1` + COc1ccc2c(c1)CCC1C2CCC2(C)C(NCCCCCCN3C(=O)C=CC3=O)CCC12 [U73122] (first compound 0.004 µM, partner dose 2 µM) belongs 112%; to `COc1cc(Nc2ncc(F)c(Nc3ccc4c(n3)NC(=O)C(C)(C)O4)n2)cc(OC)c1OC` [Tamatinib] + Oc1cc(-c2nc(-c3ccccc3)[nH]c2-c2ccncc2)ccc1Cl [L779450] (first compound 2 µM, partner dose 1 µM), 48.5%; to `O=c1[nH]nc(Sc2ncc([N+](=O)[O-])s2)n1-c1ccc2c(c1)OCCO2` + O=C(Nc1ccccc1)c1cc([N+](=O)[O-])ccc1Cl [GW9662] (first compound 1 µM, partner dose 10 µM), 46.5%.

With `COc1cc(Nc2ncc(F)c(Nc3ccc4c(n3)NC(=O)C(C)(C)O4)n2)cc(OC)c1OC` [Tamatinib] + COc1cc2ncnc(Nc3ccc(Oc4ccccc4)cc3)c2cc1OC [SrcI1] (first compound 2 µM, partner dose 10 µM), the cell count amounted to 63.4%. To `O=c1[nH]nc(Sc2ncc([N+](=O)[O-])s2)n1-c1ccc2c(c1)OCCO2` + CC(C)CCN1c2nc(Nc3cc(F)c(O)c(F)c3)ncc2N(C)C(=O)C1C [BID1870] (first compound 1 µM, partner dose 1 µM) belongs 69%. To `O=C(O)c1ccc(-c2c[nH]c3ncc(-c4ccccc4)cc23)cc1C1CCCC1` + COC(=O)c1sccc1S(=O)(=O)Nc1ccc(Nc2ccccc2)cc1OC [GSK0660] (first compound 0.8 µM, partner dose 5 µM) belongs 69.4%. As for `O=c1[nH]nc(Sc2ncc([N+](=O)[O-])s2)n1-c1ccc2c(c1)OCCO2` + Cn1cc(/C=C2\C(=O)Nc3cccnc32)c2ccccc21 [GW441756] (first compound 1 µM, partner dose 2 µM), the figure is 77.8%; as for `O=c1[nH]nc(Sc2ncc([N+](=O)[O-])s2)n1-c1ccc2c(c1)OCCO2` + COc1ccc(-c2ccc3c(N4CCOCC4)nc(N4C[C@@H](C)O[C@@H](C)C4)nc3n2)cc1CO [KU0063794] (first compound 1 µM, partner dose 0.1 µM), 111%. As for `Cn1cncc1[C@@](N)(c1ccc(Cl)cc1)c1ccc2c(c1)c(-c1cccc(Cl)c1)cc(=O)n2C` [tipifarnib] + COc1ccc2c(c1)CCC1C2CCC2(C)C(NCCCCCCN3C(=O)C=CC3=O)CCC12 [U73122] (first compound 0.05 µM, partner dose 2 µM), the cell count came out at 41.8%. To `O=c1[nH]nc(Sc2ncc([N+](=O)[O-])s2)n1-c1ccc2c(c1)OCCO2` + CCN(CC)CCCCNc1ncc2cc(-c3cc(OC)cc(OC)c3)c(NC(=O)NC(C)(C)C)nc2n1 [PD173074] (first compound 1 µM, partner dose 0.5 µM) belongs 105%. As for `O=c1[nH]nc(Sc2ncc([N+](=O)[O-])s2)n1-c1ccc2c(c1)OCCO2` + COc1cc2ncnc(Nc3ccc(Oc4ccccc4)cc3)c2cc1OC [SrcI1] (first compound 1 µM, partner dose 10 µM), the figure is 99.7%; as for `O=c1[nH]nc(Sc2ncc([N+](=O)[O-])s2)n1-c1ccc2c(c1)OCCO2` + O=C1NC(=O)/C(=C/c2ccc(-c3ccc(F)cc3O)o2)S1 [AS252424] (first compound 1 µM, partner dose 5 µM), 110%. With `O=c1[nH]nc(Sc2ncc([N+](=O)[O-])s2)n1-c1ccc2c(c1)OCCO2` + CCc1ccc(CCOc2ccc(CC3SC(=O)NC3=O)cc2)nc1 [pioglitazone] (first compound 1 µM, partner dose 10 µM), the cell count worked out at 88.8%. To `O=c1[nH]nc(Sc2ncc([N+](=O)[O-])s2)n1-c1ccc2c(c1)OCCO2` + O=C(O)C(=O)Nc1sc2c(c1C(=O)O)CCNC2 [TCS401] (first compound 1 µM, partner dose 8.33333 µM) belongs 75.4%; to `O=c1[nH]nc(Sc2ncc([N+](=O)[O-])s2)n1-c1ccc2c(c1)OCCO2` + Nc1cccc2c1CN(C1CCC(=O)NC1=O)C2=O [lenalidomide] (first compound 1 µM, partner dose 5 µM), 106%.

Source of the values: the supplement of paper PMC4604168 (melanoma cell lines).
